From the RNAGym collection of RNA variant scans (doi:10.7554/elife.90254)
Read counts are not given, so values of variants with three or more changes are uncertain.

B1: LINE1-mini (parent)
chain: GGCAGAGCUCAACACAGCGUGGCAAAGUGGCUGUGGCUAGACUGCC

Variants of: B1
Experiment: self-cleavage, relative activity (ratio to wild type); higher = more cleavage; in vitro, sequencing; the parent is a self-cleaving ribozyme
Work on GGCAGAGCUCAUCACAGCGUGGGAAAGUGGCUGUGGCUUGAGUGCC yielded a self-cleavage of 0.01. GGCAGAGCUCAUCACAGCGUGGCAAAGUGGUUGUGGUUAGACUGCC gave a self-cleavage of 0.01. GGCAGAGCUCAUCACAGCGUGGCAGAGCGGCUGUGGCUACACUGCC gave a self-cleavage of 0.05. With GGCAGAGCUCAUCAAAGCGUGGCAAAGUGGCAGUGGCUAGACUGCC the self-cleavage was 0.05. GGCAGAGCUCAUCACAGCGUGGUAAAGUACCUGUGGCUAGUCUGCC gave a self-cleavage of 0.2. GGCAGAGCUCAUCACUGCGAGGCAAAACGGCUGUGGCCGGACUCCC showed a self-cleavage of 0.03. With GGCAGAGCUCAUCACAGCGUGGCAGAGUGGCGGUGGCUAGACAGCC the self-cleavage was 0.09. Work on GGCAGAGCUCAUCACAGGGUGGCAAAGUGGCUGUGGCUUGACUACC yielded a self-cleavage of 0. Variant GGCAGAGCUCAUCACGGCGUGGCUAAGUGGCUGUGGCUAGACUGCC has a self-cleavage of 0.06. Variant GGCAGAGCUCAUCACAGCGUGGCAUAGCGAUUGUGGCUAGAUUGCG has a self-cleavage of 0.03. With GGCAGAGCUCAUCAGAGCGUGGAAAAGGGGCGGUGGUAAGACUGCC the self-cleavage was 0.01. Variant GGCAGAGCUCAUCACAGCGUGGCAACGUGGCUGUGGCAAGACUGCC has a self-cleavage of 0.02. With GGCAGAGCUCAUCACAGAGAGGCCAAGUGGCUGUGGCUUGACUGCC the self-cleavage was 0.07. GGCAGAGCUCAUCACAGCGUGGAAAAGUUGCUGUCGCUAGGGUGCC gave a self-cleavage of 0.01. In the case of GGCAGAGCUCAUGACAGCGUGGCAAAGUGGCUGUGGCUGGUCUGCC, the self-cleavage is reported as 0.04. GGCAGAGCUCAUCACAGACUGGCAAAGUGGCUCUGGCUACACUUCC showed a self-cleavage of 0.02. Variant GGCAGAGCUCAUCAGCGCGUGGCAAAGUGGCUGUGACUAGACUGCC has a self-cleavage of 0.02. Variant GGCAGAGCUCAUCAUAGCGUGGCAAAGUGGUUGUGGCUAGACUACC has a self-cleavage of 0.06. For GGCAGAGCUCAUUACAGCGUGGCAAAGUUCCUGUGGCUAGACUGCC, the self-cleavage was 0.01. GGCAGAGCUCAUAACCGCGUGUCAAAGUGGCUGUUGUUAGACUGCC showed a self-cleavage of 0.05. GGCAGAGCUCAUCACAGCGUGGCAACGUGGCUGUUGCUAGACUGCC showed a self-cleavage of 0.08. Variant GGCAGAGCUCAUCUCAGCGUGGCAAAGUGGCAGUGGCUAGACUGCC has a self-cleavage of 0. Work on GGCAGAGCUCAUCAGAGCGUGGCAAAGUGGCUGUGGCUUGACUGCC yielded a self-cleavage of 0.02. GGCAGAGCUCAGCACAGCGUGGCAAAGGGGCUGUGGCUAGACUGUC gave a self-cleavage of 0.12. Work on GGCAGAGCUCAUUACAGCGUGGAAAAGUGGCUGUGGCUAGACUGCC yielded a self-cleavage of 0.07. Variant GGCAGAGCUCAUCACAGCGUGGCAAAGUGGGUGAGGCUAGACUGCC has a self-cleavage of 0.01. With GGCAGAGCUCAUCACAGCGUGGAAAAGUGCCUGUGGCUAGACUGGG the self-cleavage was 0.02. GGCAGAGCUCAUCACGGCGUGGCAAAGUGGCAGUGGCUAAACUGCC showed a self-cleavage of 0.02. GGCAGAGCUCAUUACAGCUUGGCAAAGUGGCUGUUGCUAGAAUGCC showed a self-cleavage of 0.03. For GGCAGAGCUCAUCUCAACGUGGCAAAGUGGCUGUGGCUAGACUGCC, the self-cleavage was 0.05. GGCAGAGCUCAUCACAGCGUGGCUAAGUGGCUGUGGUUAGACUGCC showed a self-cleavage of 0. Variant GGCAGAGCUCAUCACAGAGUGGCACAAUGGCUAUGGCUAGACUGCA has a self-cleavage of 0.02. GGCAGAGCUCAUCACUGAGUGGCAAAGUGGCUGUCGCUAGACUGCC gave a self-cleavage of 0.02. For GGCAGAGCUCAUCUCAGCGUGGCAUAGUGGCUGUGGCAAGACUGCC, the self-cleavage was 0.12. Work on GGCAGAGCUCAUCACAGAGUGGCAAAGUAGCUGUGGCUAGACUGCC yielded a self-cleavage of 0.06. Work on GGCAGAGCUCAUCACAGCGUGGCAAAGUGGCUGUGGAUAGACUGAC yielded a self-cleavage of 0. Work on GGCAGAGCUCAUCACAGCGUGGCAAAGUGGGUGUGGCUAGACUGCU yielded a self-cleavage of 0.03. Variant GGCAGAGCUCAUCACCGCGUGGCAAAGUGGCUGGGGCUAGACGGCC has a self-cleavage of 0. With GGCAGAGCUCAUCCCAGCUUGGCAAAGGGGCUGUGGCUAGACUCCC the self-cleavage was 0. GGCAGAGCUCAUAACAGAGUGGCAAAGUGGCUGUGGCUAGACUGCC showed a self-cleavage of 0.04. Work on GGCAGAGCUCAGCACAGCGUGGCAAAGUGGCAGUGGCUAGAAUGCC yielded a self-cleavage of 0.15. In the case of GGCAGAGCUCAUCACUGCGUGGCAAAGUGGCUGUGGCGAGACUGCC, the self-cleavage is reported as 0.03. GGCAGAGCUCAUCACGGCGUGUCAAAGUGCCUGUGGCUAGACUGCC gave a self-cleavage of 0.23. For GGCAGAGCUCAUCACAGCGUGGCAAAGUGGCUGUGGCUUUACUGCC, the self-cleavage was 0.13. Variant GGCAGAGCUCAUCACAGCGUGGCAAUGUUGCUGUGGCUAGACUGCC has a self-cleavage of 0.48. For GGCAGAGCUCAUCACAGCGUGGCAAAGUGGCUGUGGAUAGCGUGCC, the self-cleavage was 0.02. GGCAGAGCUCAUCACUGCGUGGCAAAGUGGCUGUGGCUAGAAUGCC showed a self-cleavage of 0.19. In the case of GGCAGAGCUCAUCUAAGCGUGGCAAAGUGGCUGUGGCUAGACUGCC, the self-cleavage is reported as 0.01. GGCAGAGCUCAUCAAACCGUGGCAAAGUGGCUGUGGCUAGACUGCC showed a self-cleavage of 0.1. Variant GGCAGAGCUCAGCACAGCGUGGCAAAGCGGCUGUGGCUCGACUGCC has a self-cleavage of 0.01. GGCAGAGCUCAUCACAGCGUGGAUAAGUGGCUGUGGCUAGACUGCC gave a self-cleavage of 0.28. For GGCAGAGCUCAUCACUGCAUGGCAAAGUGGCUGUGGAUAGUCUGCC, the self-cleavage was 0.06. In the case of GGCAGAGCUCAUCACAGCGUGGAAAAGUGGCUGUGGCUAGAGUGCC, the self-cleavage is reported as 0.05. Work on GGCAGAGCUCAUCACAGAGUCGCAAAGUGGCUGUGGCUAGACUGCC yielded a self-cleavage of 0.19. Variant GGCAGAGCUCAUCACAGCGUGGCAGAGUGGCUGUGUCUAGACUGCC has a self-cleavage of 0.06. In the case of GGCAGAGCUCAUCACAGCGUGGCAGUGUGGCUGUGUCUAGACUGCC, the self-cleavage is reported as 0.01.
